Measured values: PMC12136788
The other results are listed elsewhere or left out.

T1: UNK ZnF1-3 (human, UniProt Q9C0B0 31-174)
T1 sequence: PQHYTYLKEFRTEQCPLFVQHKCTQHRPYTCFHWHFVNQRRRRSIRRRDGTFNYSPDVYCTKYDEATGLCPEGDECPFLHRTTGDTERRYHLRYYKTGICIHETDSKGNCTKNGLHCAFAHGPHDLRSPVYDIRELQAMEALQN

B1: 69548568_69548688_5610_CDS_ENSMUSG00000005198_ENSMUST00000058470|mouse|control|control (ssRNA)
RNA: GGGAGUUCUACAGUCCGACGAUCACUAGUUGGAGAAUAGUUAGGGCUGGUGGGUGAGUAGCUUGGAGAAGUUGGUGAGUAGCUUGGAGAAGUUGGUGAGUAGCUGGGAGAUGUCGGUGAGUAGCUGGGGGAGGUGGGAGAAUACAACAGAGGAUUGAGCAUCA
B2: chr4:76721835:76721836:+_ENSG00000138768_ENST00000264904|hu_mus|hu_hu_hu_mus_True|1_18 (ssRNA)
RNA: GGGAGUUCUACAGUCCGACGAUCGUUUGGCUGGGGUUUCUGAGACGCUCUGGAAUAUAACUCAUGUUUGCUAAUAAAUCCUAGUUUCUCUAUGAAAUUCUCUUUGCCAAUCCUCUUUCAAUCAGUUUGCUUUAGUUCUCUUUCCAACAGAGGAUUGAGCAUCA
B3: chr9:42776281:42776282:-_ENSMUSG00000059495_ENSMUST00000165665|mus_hu|motif|central (ssRNA)
RNA: GGGAGUUCUACAGUCCGACGAUCUCUUUACCCACUCCCAUCCCACCCUUUCCUUAGCAACCCCCACCCCUGCCACGGUCCGAAGCAUUUCCAUUUGUUUUUACUUCCUGCUCAAUCUGCAGGGACAGUUUUACACAAGUGCCACAACAGAGGAUUGAGCAUCA
B4: 111654399_111654519_7874_CDS_ENSG00000009413_ENST00000368805|human|control|control (ssRNA)
RNA: GGGAGUUCUACAGUCCGACGAUCUGAUUGGAAAUCCAAAACGAGAACAGAGUUGCUAUAGAAGCGGGAUUCAGGCUCCAUAAUUAGAGGAACACACUGUGGGGCUCUCAUCUGGGAUCUUUGCUGAACACUAGGUGUCACAGGCAACAGAGGAUUGAGCAUCA
B5: chr1:163112212:163112213:-_ENSG00000143248_ENST00000313961|hu_hu|hu_hu_hu_mus_False|1_58 (ssRNA)
RNA: GGGAGUUCUACAGUCCGACGAUCUUUUAUUAUCAGUAAGAGUGAGUUACAUACUAGGCAAAGUAUUGGAUACAAUAUUCUAAAGAUAAACACUAUUGGUCCAGAAUUUAAAACUUUAUGAGCGAAGUGCUGGCACAGGAUUUACAACAGAGGAUUGAGCAUCA
B6: chr1:120316390:120316391:+_ENSMUSG00000064302_ENSMUST00000049404|mus_hu|motif|central (ssRNA)
RNA: GGGAGUUCUACAGUCCGACGAUCUAACAUGGUCUGGUCAUGCUCAAGGUCAGCAGACUUCUGUUUGUCUGAGAAAUAGUCGGUCAGUUCUUGGCCAACCUGCAAUCGUUUCCCCACAUCCUUCUGCAACACCUGCGCCAGGCACAACAGAGGAUUGAGCAUCA
B7: 55057885_55058289_1828_CDS_ENSMUSG00000025982_ENSMUST00000027127|mouse|control|control (ssRNA)
RNA: GGGAGUUCUACAGUCCGACGAUCUUCCACUCUAGCAUAGUAAUCUUCAUCAAUCAACAGUGGCUCGAUAACCACAAGAAUCUUGUGCACAUACGGCCGCACCAAGUCAUCAAGUUUAUACAAUAUUCUAUCAAUAACUUUCACCAACAGAGGAUUGAGCAUCA
B8: chr8:121473430:121473431:+_ENSG00000172167_ENST00000305949|hu_hu|FALSE|FALSE (ssRNA)
RNA: GGGAGUUCUACAGUCCGACGAUCAAUAUCCGACAUAUAGCAGGAGGGUAGAUCUGAUAAUUUUAUCAUCUGCACAAAUUCUAAAGCAGGGCCAUAAUAAUGGAAAACCUUUGGCAAAAUAUUCUUAUCCUUUGAUGGUAUGAUCAACAGAGGAUUGAGCAUCA
B9: chr12:39756943:39756944:-_ENSG00000139116_ENST00000544797|hu_mus|hu_hu_hu_mus_False|58_98 (ssRNA)
RNA: GGGAGUUCUACAGUCCGACGAUCGGUUUGGCUGUUACCCCCGAGGGAAUCCUGCAAGAGUCUUGUCAGCUUAGAGUCUCUAUAGGGGACAUGGGUGGCUCUCUUGCUCUUGUCCCCCAAGGCGCUGAUUACAUUCCCAAGAGCCAACAGAGGAUUGAGCAUCA
B10: chr4:109034340:109034341:+_ENSMUSG00000028552_ENSMUST00000102729|mus_mus|FALSE|FALSE (ssRNA)
RNA: GGGAGUUCUACAGUCCGACGAUCUUCUUCUCUAGCUUUCAACAGUUCUUCCUCAUAACUGGAGAUCUGAGAUUCUUGACUAGUUAUUUCUGCUUUCAGGGAAGAAAUCAGCUGGGCCUCCUCAGCACACUUUUUCCUGACUUCCAACAGAGGAUUGAGCAUCA
B11: chr2:61719535:61719536:-_ENSG00000082898_ENST00000401558|hu_hu|FALSE|FALSE (ssRNA)
RNA: GGGAGUUCUACAGUCCGACGAUCGUUAACUACAGUCUUCAGAAAUUUCCAGUGAGCUCUCAAAAAACGUGGGUAUUGACCUACUAUGUACAUGAUAUUUGAUGCAAUAAUAGCUUUAUUAUCUUUGCCUCUUUUCUGUUCACACAACAGAGGAUUGAGCAUCA
B12: 109687111_109687231_1267_CDS_ENSG00000148143_ENST00000277225|human|control|control (ssRNA)
RNA: GGGAGUUCUACAGUCCGACGAUCCAUCUGAGGGUAAGACAUGGGCGAAAACUUGGAAGCUGAAGAAUUGGGUCUCAUGAUGGAGUUGCCCAUGGAGCCCCUGAAGUUGGAGACGGUAGUAUUGGGUAUCUCCCGGCUUGCAGCCAACAGAGGAUUGAGCAUCA
B13: chr7:56126341:56126342:+_ENSG00000146731_ENST00000540286|hu_mus|hu_hu_hu_mus_True|68_98 (ssRNA)
RNA: GGGAGUUCUACAGUCCGACGAUCCAUGUUUCUCCUCUUAGCUCUGCGCAGAGCUACGAUCCCUUCUUUUGAAAGAGCAUCUAAGGAAAAGGGGUCAAUCCCCUUUUGAUUAAUAACGACAAAUCCUUUAUCUGAGUCACCACACAACAGAGGAUUGAGCAUCA
B14: chr7:141441981:141441982:+_ENSG00000106028_ENST00000265304|hu_mus|hu_hu_hu_mus_False|28_78 (ssRNA)
RNA: GGGAGUUCUACAGUCCGACGAUCCUCAUGUCUUACAAACUGACGAAAUACCUGUAAUACAGGUCUUCGAAACAUGGCUUCUGUUUUUCUUACAACCUAAUCUUUAGUUAGGCUUUUAAGGAAAGAAAGAAAAGAGAAAAAUGACAACAGAGGAUUGAGCAUCA
B15: chr1:137281999:137282000:-_ENSMUSG00000041879_ENSMUST00000161189|mus_mus|FALSE|FALSE (ssRNA)
RNA: GGGAGUUCUACAGUCCGACGAUCUUAGAUGCCGAUAGUCUGUAGGACCCGCCUCUCGUUGUCGUUAAGGUGGCAUGAAAACAUUAUGUAACAGGGCUGCUGAGCAAACUGGCAAAGGAAGUCUGUGAGAUACGCCUGCAGAUCCAACAGAGGAUUGAGCAUCA
B16: chr7:75932113:75932114:+_ENSG00000106211_ENST00000248553|hu_hu|hu_hu_hu_mus_False|48_58 (ssRNA)
RNA: GGGAGUUCUACAGUCCGACGAUCCUGCGACCACUCAUCGGGCAACCGGGGCACCCCGAAAGCUUGAUCGAAGAGGCGGCUAUGCGGGUACCAGUCGUCCCGGAAUGGUUCCCAGCUCGGGCUCCGCAGCAGCGAGAAGGGCACCAACAGAGGAUUGAGCAUCA
B17: chr19:41288738:41288739:-_ENSMUSG00000025016_ENSMUST00000025989|mus_hu|motif|central (ssRNA)
RNA: GGGAGUUCUACAGUCCGACGAUCAACUUGGGGGGAAAAAAGAUAAUCACUUUAGACAUUCAGUUAAAAUGUAGUUUAUCGGAAUCUCAAAAUGUUUAAUAAAAACAAGUAUCUUCUCCAUUUAACACUUUGCUUUCUAACUGUCAACAGAGGAUUGAGCAUCA
B18: 38682815_38682935_5030_CDS_ENSG00000105738_ENST00000222345|human|control|control (ssRNA)
RNA: GGGAGUUCUACAGUCCGACGAUCCUGCUCUGGCCCCAGGUUGUCCAUGAUGAUGAGUUUCUUCAGGUCAUCCUCGAUGGUGGAUUUGUAGUUCUUCCGUGGUGACCGGAGGUCUCGGAGGGAUGCCCUCAACCUCGGUUGCCCCAACAGAGGAUUGAGCAUCA
B19: 60086205_60090372_1448_CDS_ENSMUSG00000020986_ENSMUST00000021375|mouse|control|control (ssRNA)
RNA: GGGAGUUCUACAGUCCGACGAUCCUCAUUUUCAGACACGCAAGGUCCUUUUGAAUUAAGAGACACACAGGGUCCAAUAGCUCCUGAAAUCUUUAUUUCCCUUGAAGUCUUUAUUUCUAAUGUGCCACCAAAGCCCAUUUUAAACAACAGAGGAUUGAGCAUCA
B20: 8934024_8936927_1313_CDS_ENSG00000134313_ENST00000427284|human|control|control (ssRNA)
RNA: GGGAGUUCUACAGUCCGACGAUCAAGUAAUCGCCCAUCUUUGGGAUUUCUUAAAAGCAGUUCUGCCAGUUUCCGGCUCCUUCCACGAAUAGCAAUAUGCAAGGGAGUAUCUCCUUUCUUAUCUACAGCAGACACUUUAGCACCCAACAGAGGAUUGAGCAUCA
B21: chr19:16212804:16212805:+_ENSG00000167460_ENST00000300933|hu_mus|hu_hu_hu_mus_False|8_8 (ssRNA)
RNA: GGGAGUUCUACAGUCCGACGAUCAACAAUUCUGGAGUGAAGGAAAGAUGUAACAUGGAACAGCAUUAAAGCUCAGUCAGAAGGCACAUGGGCAACAAUGAUCACCCCAGCAUUCUCGCUUGGAAUGUGCUUGAGAAAUCUGUUCAACAGAGGAUUGAGCAUCA
B22: chr5:22955990:22955991:+_ENSMUSG00000029004_ENSMUST00000094962|mus_mus|FALSE|FALSE (ssRNA)
RNA: GGGAGUUCUACAGUCCGACGAUCUGCAUUGGUAUCCAAAAUACUGGGGCAUGCCAGCCACAGUGCUCAUUGCAAACAUCUAAGUGCAUCCACAAACCCUGUGAUGGUCACACACCAGACACCCGAACCCUGUUAUCGGCUCGACAACAGAGGAUUGAGCAUCA

biological target: T1, UNK ZnF1-3; test: nsRBNS (natural sequence RNA bind-n-seq); RBNS binding buffer (assumed for nsRBNS): 25 mM Tris pH 7.5, 150 mM KCl, 3 mM MgCl2, 0.01% Triton X-100, 500 ug/ml BSA, 20 U/ml SUPERase-In, 4 C; UNK is unkempt and MSI1 is Musashi-1; names of the RNAs are library labels; protein concentration not given here; high values mean tight binding

Row | Binder | binding signal [enrichment R]
1 | B1 | 1.72
2 | B2 | 0.46
3 | B3 | 0.739
4 | B4 | 1.05
5 | B5 | 1.29
6 | B6 | 0.668
7 | B7 | 1.09
8 | B8 | 1.35
9 | B9 | 0.861
10 | B10 | 0.686
11 | B11 | 0.7
12 | B12 | 1.35
13 | B13 | 1.33
14 | B14 | 0.566
15 | B15 | 1.61
16 | B16 | 0.646
17 | B17 | 0.776
18 | B18 | 0.559
19 | B19 | 0.867
20 | B20 | 1.04
21 | B21 | 1.29
22 | B22 | 0.699
